Results taken from the supplement of paper PMC3334620.
The full ranking holds about 33,000 sequences; the median of “E-score (-0.5 to 0.5)” is about -0.035, and the highest 2% start at about 0.35. The list shows a part of the results.

Each sequence was assayed against T1, Pdr3 (UniProt P33200) (assay: PBM E-score (8-mer binding enrichment) (E-score (-0.5 to 0.5)); higher = stronger / more preferred TF binding; most listed sequences are background and not binding sites). Conditions: protein concentration: 200 nM; construct: GST-full length.
T1 sequence: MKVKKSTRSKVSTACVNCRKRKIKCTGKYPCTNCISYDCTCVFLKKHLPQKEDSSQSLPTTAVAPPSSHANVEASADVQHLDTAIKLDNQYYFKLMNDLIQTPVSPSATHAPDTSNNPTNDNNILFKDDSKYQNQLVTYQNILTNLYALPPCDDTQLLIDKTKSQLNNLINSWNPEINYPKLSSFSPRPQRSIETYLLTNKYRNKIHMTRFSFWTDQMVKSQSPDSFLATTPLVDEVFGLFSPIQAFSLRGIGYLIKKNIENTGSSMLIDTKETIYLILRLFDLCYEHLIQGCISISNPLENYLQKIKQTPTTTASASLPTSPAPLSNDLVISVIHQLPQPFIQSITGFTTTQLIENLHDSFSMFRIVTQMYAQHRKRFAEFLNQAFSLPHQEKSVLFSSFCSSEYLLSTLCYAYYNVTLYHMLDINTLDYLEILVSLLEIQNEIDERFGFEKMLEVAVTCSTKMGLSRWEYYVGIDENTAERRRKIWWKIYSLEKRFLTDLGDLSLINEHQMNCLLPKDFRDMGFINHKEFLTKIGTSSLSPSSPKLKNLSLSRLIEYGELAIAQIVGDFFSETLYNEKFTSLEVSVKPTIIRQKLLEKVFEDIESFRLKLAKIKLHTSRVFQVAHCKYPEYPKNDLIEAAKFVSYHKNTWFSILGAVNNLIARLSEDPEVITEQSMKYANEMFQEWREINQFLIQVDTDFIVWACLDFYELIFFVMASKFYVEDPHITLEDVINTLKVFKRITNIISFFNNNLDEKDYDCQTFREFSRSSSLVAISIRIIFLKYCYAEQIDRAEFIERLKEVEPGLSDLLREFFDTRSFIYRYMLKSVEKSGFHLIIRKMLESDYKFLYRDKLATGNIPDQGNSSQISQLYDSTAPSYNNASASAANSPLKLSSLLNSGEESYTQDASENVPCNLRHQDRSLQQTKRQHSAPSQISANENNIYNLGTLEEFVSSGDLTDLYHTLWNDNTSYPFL
Procedure: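 Universal 'all 10-mer' protein binding microarrays (Agilent AMADID 015681) probed with GST-tagged S. cerevisiae TFs (full-length or DBD) made by in vitro transcription/translation (PURExpress), about 100-200 nM. Bound TF was detected with fluorescent anti-GST. Each ungapped 8-mer (which stands for itself and its reverse complement) is scored by the PBM enrichment score (E-score), a modified Wilcoxon-Mann-Whitney statistic from -0.5 to +0.5, computed with the Universal PBM Analysis Suite. Scale: above 0.35 generally sequence-specific binding.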

| Sequence | PBM E-score |
| --- | --- |
| CCTCTTCC | 0.102 |
| GACGAACC | -0.0138 |
| ATGGTAGC | 0.0383 |
| AGGAGGCG | -0.0989 |
| GAGGCACA | -0.0527 |
| TAAGCGTA | -0.311 |
| CGCGGTTC | 0.307 |
| TGACCCCA | -0.0487 |
| GGCTAGCC | -0.193 |
| AGTTAACG | -0.056 |
| ACGGGCTG | 0.0396 |
| TCGGTAGA | -0.027 |
| CAGTCTAA | -0.139 |
| GTCGTTTA | -0.0669 |
| ACCCCAGT | 0.0467 |
| AGATGATG | -0.0403 |
| CAGGAAGG | -0.317 |
| CTTCCATA | -0.218 |
| CAGGTAGA | -0.165 |
| GGCCGTTA | 0.225 |
| GGGGGGCA | -0.411 |
| ACCGGCAC | 0.192 |
| ACAGTGAG | -0.277 |
| CTTAGACC | -0.233 |
| AATTACCT | -0.219 |

| Sequence | PBM E-score |
| --- | --- |
| CTTAGCTC | -0.0322 |
| GGGCATTA | -0.0343 |
| CCTTCCAC | -0.127 |
| GCTCACTA | -0.189 |
| AAAATCTT | -0.207 |
| AGAGGGAG | -0.301 |
| AAAGCAGG | -0.087 |
| GCATCCCA | 0.00473 |
| GGTTGGTA | 0.0611 |
| CATGGGGG | -0.065 |
| TGCCGGCA | 0.385 |
| CAGCGCGA | -0.149 |
| CGCTACCG | 0.141 |
| GGTCTCTA | -0.103 |
| AGCATAGC | -0.369 |
| GGAGTAAC | 0.0889 |
| AGCGATCA | -0.103 |
| AAACGGGA | 0.352 |
| AAAAATCG | -0.0751 |
| AAGCTCCT | -0.2 |
| AAGTTCCG | 0.445 |
| GTGCAGGA | -0.185 |
| TACTGAGA | -0.116 |
| ACTTCTTA | -0.0293 |
| GCCCCGAA | 0.229 |

| Sequence | PBM E-score |
| --- | --- |
| CTATGATA | 0.0702 |
| CAGCTCTA | -0.128 |
| CTAAAGTA | -0.175 |
| GGTGTACA | -0.172 |
| AACGCCTC | -0.18 |
| CCAGTAAC | 0.06 |
| ATTGCCGA | 0.0449 |
| AGCCTGCA | -0.0808 |
| CTATATAG | -0.19 |
| CCAATTTA | 0.107 |
| AGAATGGA | 0.0755 |
| CTTCCCCA | -0.0524 |
| AACGACCT | -0.0509 |
| CTGTGTGA | 0.016 |
| CATTGCGG | 0.162 |
| TTCATGAA | -0.0172 |
| GCGTGTGA | 0.00455 |
| CGCTTATC | -0.0899 |
| ACCCGTAG | -0.136 |
| ACAACCTC | -0.173 |
| CAGGGGCG | -0.0414 |
| ATCGCAAG | -0.0969 |
| AAGCGGCA | 0.178 |
| GAAGCAAA | -0.213 |
| AAGTTGCA | -0.103 |

| Sequence | PBM E-score |
| --- | --- |
| CCGCGCGA | 0.303 |
| GTTATATA | 0.00607 |
| TGTACGAA | 0.0305 |
| CTCGAGAC | 0.0902 |
| ATCAACTC | -0.0321 |
| CGGGGCGA | 0.27 |
| AGTACGAT | 0.0388 |
| CAGTAGGC | -0.169 |
| AACCCAAG | -0.122 |
| CACTTAAC | -0.138 |
| GTACGTTA | 0.0883 |
| ACCTCCGT | 0.204 |
| ACAATCAG | -0.144 |
| CACGGCAC | 0.0786 |
| GGGTCTTA | -0.0402 |
| CTTGTGGC | -0.181 |
| ATTATAAT | 0.213 |
| GGGGCCCC | 0.307 |
| CTTCCGAC | 0.267 |
| GTTTCGTA | 0.08 |
| ACCAACTC | -0.0488 |
| ACGCCAGT | -0.0505 |
| CTTATACC | -0.119 |
| AGTCTAAA | -0.203 |
| CCAGAAAC | 0.0423 |

| Sequence | PBM E-score |
| --- | --- |
| CCAAACAA | -0.0083 |
| ACACCATG | -0.196 |
| ACGAATAC | -0.0431 |
| AGTTGTGA | 0.00273 |
| AATACGGC | 0.17 |
| GGAAACAA | 0.246 |
| TAGATTAA | -0.0269 |
| CCCCTGTA | -0.122 |
| AACAATCC | 0.197 |
| CAATCAAA | -0.0425 |
| ACACTAAT | 0.0852 |
| CGGCTGTC | 0.0887 |
| CCCGGCTC | 0.224 |
| CCTTCGAA | 0.0991 |
| CGAGCGTC | -0.124 |
| AGACTCTA | -0.268 |
| CCGCCCGC | 0.241 |
| ATTATTGC | 0.131 |
| CCTTGTAA | -0.0627 |
| AAGCCTCG | -0.0127 |
| GATCAGAC | -0.0736 |
| ACGGCAGT | -0.0505 |
| CAGCTGAC | 0.0213 |
| CACACTCG | 0.111 |
| CTATCGGC | 0.112 |

| Sequence | PBM E-score |
| --- | --- |
| CGTTGTGC | -0.0287 |
| AAGGCGAC | -0.109 |
| GAGATATA | -0.0202 |
| ATTCCTTC | 0.128 |
| CACGTCGC | -0.0577 |
| GCAGGAGC | -0.238 |
| ATCCACAA | -0.231 |
| AGAATTGA | -0.245 |
| GTTAGTGA | -0.121 |
| ACGTGTGC | -0.292 |
| AAAGTCGG | -0.00755 |
| AATGATCC | 0.142 |
| AGAACAAG | 0.00381 |
| AAGTAGCT | -0.228 |
| GTTGTATA | -0.144 |
| AAGAGGCA | -0.0517 |
| CCAAGCAA | -0.11 |
| CACGTGCC | -0.125 |
| AGTTAGAG | -0.249 |
| CTGTTTCC | 0.045 |
| AGCGGAAC | 0.457 |
| GGACAATA | 0.28 |
| ATAGCGGA | 0.259 |
| CTAGCTTA | -0.0805 |
| ACTCGAGG | -0.0802 |

| Sequence | PBM E-score |
| --- | --- |
| AGAAAAAT | -0.0145 |
| CCTTGCCG | 0.129 |
| GACAGCGC | 0.134 |
| TTATCCAA | 0.0824 |
| GACGGAAC | 0.475 |
| AGCAGTGG | -0.0483 |
| AGGTCTGA | -0.099 |
| CTGCGACC | -0.0723 |
| AACGCCGA | 0.127 |
| AGGAAATC | 0.0849 |
| ACGTTGCG | -0.0196 |
| CCACAAAA | -0.0386 |
| CCCAACAC | -0.135 |
| ACTATAAT | 0.0779 |
| CACTATGA | -0.145 |
| AGACTCTG | -0.206 |
| AAAAATGT | 0.0159 |
| CCTGTAAC | -0.202 |
| GCCATAGC | -0.0853 |
| AAATCATC | -0.0344 |
| ACCGTGCA | -0.103 |
| CCAGAATA | -0.00355 |
